Measured values as given in PubChem BioAssay AID1963319 (National Center for Advancing Translational Sciences (NCATS), 2024).
Among all 1,300 compounds or so, about 120 (9.2%) were called active. Inconclusive results, whose numbers are uncertain, are shown with a selection of clear calls. Calls follow the shape of the dose curve; as a rule, active = well fitted activation curve with a large enough effect; inconclusive = small, poorly fitted or top-dose-only effect; inactive = flat fitted curve, though single readings scatter. Where the call is inconclusive, the potency comes from a doubtful curve fit.

molecular target: Luciferin 4-monooxygenase (Photinus pyralis) (UniProt P08659); assay: Firefly luciferase (FLuc-C-HiBiT) SDR gain of signal screen - plus ATP; conditions: purified FLuc-C-HiBiT + ATP, HiBiT complementation luminescence; series mostly up to 32.7 µM;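 also: signal reports ligand binding via conformational change of the enzyme rather than luciferase catalysis; nearly all actives have a fitted effect of over 55% in size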
Method in brief: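 FLuc-C-HiBiT at 10 nM final with 10 uM ATP, incubated with compounds >30 min at room temperature. Nano-Glo HiBiT reagent then added; after 5-10 min, complementation luminescence read on CCD imager as gain of signal.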
Potency is read from the fitted curve at half-maximal effect; tags tell the direction and shape of the fitted curve.

UniProt P08659, sequence (P08659 whole entry, looked up): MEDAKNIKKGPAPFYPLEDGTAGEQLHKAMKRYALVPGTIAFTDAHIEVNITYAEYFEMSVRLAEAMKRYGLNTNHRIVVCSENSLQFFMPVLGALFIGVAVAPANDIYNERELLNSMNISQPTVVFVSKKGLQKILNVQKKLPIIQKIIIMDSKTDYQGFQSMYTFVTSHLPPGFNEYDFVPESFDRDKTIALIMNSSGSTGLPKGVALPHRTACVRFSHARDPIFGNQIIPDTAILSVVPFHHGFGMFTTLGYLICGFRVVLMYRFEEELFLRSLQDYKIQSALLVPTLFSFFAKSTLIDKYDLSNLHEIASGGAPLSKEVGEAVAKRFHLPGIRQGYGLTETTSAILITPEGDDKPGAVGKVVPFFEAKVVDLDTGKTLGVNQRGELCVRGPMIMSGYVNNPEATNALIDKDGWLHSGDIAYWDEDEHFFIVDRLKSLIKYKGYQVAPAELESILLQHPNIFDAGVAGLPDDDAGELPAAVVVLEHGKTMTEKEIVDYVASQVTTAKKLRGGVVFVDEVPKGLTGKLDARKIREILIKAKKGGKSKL

Compound	Potency
O=C1c2cnc(-c3ccc(Cl)cc3)nc2OCCN1CC1CC1	inconclusive: 2.55 µM [activator, full curve, poor fit]
Cc1cc(CNC(=O)C2CCCCn3nnnc32)c2[nH]c(-c3ccccc3)c(C)c2c1 (centres undefined)	inactive
COc1cccc(-c2ncc3c(n2)OCCN(c2ccccc2)C3=O)c1	inconclusive: 5.7 µM [activator, partial curve]
NS(=O)(=O)c1cccc(N=Cc2c(O)[nH]c3ccccc23)c1	inactive
CN1CCN(c2ccc(-c3cc4c(ccn4C)c(C(=O)NCCc4ccccn4)n3)cc2)CC1	inconclusive: 1.4 µM [activator, full curve]
COc1cc(NC(=O)Nc2cccc(-c3ccc(N4CCOCC4)nn3)c2)cc(OC)c1	inconclusive: 9.89 µM [activator, partial curve]
O=C(O)C1(CCc2ccccc2)CCCN(c2ncnc3nc[nH]c23)C1 (centres undefined)	inactive
Nc1nc(N2CCC3(CC2)NC(=O)CC3C(=O)O)c2[nH]cnc2n1 (centres undefined)	inactive
Cc1ccc(NC(=O)CCc2c(C)nc3cc(-c4ccccc4)nn3c2C)cc1F	inconclusive: 9.89 µM [activator, partial curve]
O=C(NCCc1ccccc1Cl)c1ccc2c(c1)nc1n2CCCCC1	inconclusive: 7 µM [activator, partial curve]
Cc1ccccc1-c1noc(-c2ccc(N3CCCC3)c([N+](=O)[O-])c2)n1	inconclusive: 14 µM [activator, partial curve, poor fit]
O=C(O)c1cccc(-c2noc(-c3ccc(C(F)(F)F)cc3)n2)c1	active: 0.0062 µM
O=C(NC1CCCCCC1)C1CCN(C(=O)c2ncn3c2COC(c2ccccc2)C3)CC1 (centres undefined)	inconclusive: 8.81 µM [activator, partial curve]
Fc1ccc(-n2ncc3c(N4CCCCCC4)ncnc32)cc1	inconclusive: 3.13 µM [activator, full curve]
COc1ccc(CNC(=O)Nc2cccc(-c3ccc(N4CCOCC4)nn3)c2)cc1	inconclusive: 4.95 µM [activator, partial curve]
CC(=O)NCCC1CCN(C(=O)Nc2ccc(C)cc2)CC1	inconclusive: 14 µM [activator, partial curve]
Cc1ccc(NC(=O)N2CCC(CCNC(=O)C3CC3)CC2)cc1	inconclusive: 14 µM [activator, partial curve]
CCC(=O)NCCC1CCN(C(=O)Nc2ccc(C)cc2)CC1	inconclusive: 14 µM [activator, partial curve]
O=C(Nc1ccc2c(c1)OCO2)c1cccc2c1CCN2C(=O)Nc1ccc(F)cc1	active: 0.248 µM
Cc1ccc(NC(=O)c2ccc3c(c2)N(C)C2CCCN2C3=O)cc1F (centres undefined)	active: 4.42 µM
c1cncc(Nc2cc3c(cn2)CN(Cc2ccn[nH]2)CCN3)c1	inactive
COc1ccc(NC(=O)Nc2ccc(C)n(CC(=O)NCC(C)C)c2=O)cc1	inconclusive: 11.1 µM [activator, partial curve]

Compound	Potency
CC(C)COc1ccc(C(=O)Nc2onc3c2CCCC3)cc1	inconclusive: 9.89 µM [activator, partial curve]
CN(C)CCNC(=O)c1cccc2c1CCN2C(=O)Nc1ccccc1	active: 1.11 µM
Cc1ccc(-n2ncc3c(N4CCC(C(N)=O)CC4)ncnc32)cc1	inconclusive: 12.4 µM [activator, partial curve, poor fit]
O=C(O)C1CCc2nc(N3CCN(C(=O)C4CCC4)CC3)sc2C1 (centres undefined)	inconclusive: 7 µM [activator, partial curve]
Cc1ccc(-c2ncc(NC(=O)c3ccccc3F)cn2)cc1	inconclusive: 1.57 µM [activator, full curve, poor fit]
COc1ccc(C)cc1NC(=O)Nc1cccc(-c2ccc(N3CCCCC3)nn2)c1	inconclusive: 8.81 µM [activator, partial curve]
O=C(O)CCC1CCN(c2cc(NC3CC3)ncn2)CC1	active: 3.94 µM
COc1ccc(-c2cc3c(cn2)CN(Cc2ccncc2)CCN3)cc1	inconclusive: 25.5 µM [activator, partial curve, poor fit]
COc1ccc(NC(=O)Nc2ccc(C)n(CC(=O)N3CCCC(C)C3)c2=O)cc1 (centres undefined)	inconclusive: 14 µM [activator, partial curve]
CCN(CC1CCOCC1)C(=O)c1cccnc1SC/C=C/c1ccccc1	inactive
CC(C)c1ccc(NC(=O)C2CCN(C(=O)c3ncn4c3COC(c3ccccc3)C4)CC2)cc1 (centres undefined)	inconclusive: 3.51 µM [activator, full curve]
Cc1ccc(-n2ncc3c(N(C)C)ncnc32)cc1Cl	inconclusive: 1.76 µM [activator, full curve]
CN1CCCN(C(=O)Nc2ccc3c(c2)OCCO3)c2ccccc21	inconclusive: 14 µM [activator, partial curve, poor fit]
CCOC(=O)C1CCN(C(=O)c2cccc3c2CCN3C(=O)Nc2ccccc2)CC1	active: 3.13 µM
O=C1c2cnc(-c3ccccc3)nc2OCCN1CC1CC1	inconclusive: 16.1 µM [activator, partial curve]
O=C(O)c1ccc(-c2ccc(N3CCCCCC3)nc2)cc1	inconclusive: 2.79 µM [activator, full curve]
Fc1ccc2nc([C@H]3CCN(Cc4ccccc4F)C3)[nH]c2c1	inactive
CCc1ccccc1Nc1nc(-c2cccc(OC)c2OC)no1	inactive
Cc1ccc(C2Cn3nnc(C(=O)N4CCC(C(=O)NCCN5CCCC5)CC4)c3CO2)cc1 (centres undefined)	inconclusive: 12.4 µM [activator, partial curve, poor fit]
Cc1cn2nc(C(=O)NCCc3ccccc3)cc2c(=O)[nH]1	inconclusive: 6.24 µM [activator, full curve, poor fit]
CN(Cc1ccccc1)C(=O)c1cccc2c1CCN2C(=O)Nc1ccccc1	active: 0.394 µM
O=C1NCCCCCCN(C(=O)Nc2ccc3c(c2)OCCO3)[C@H]2CCCC[C@@H]12	inconclusive: 11.1 µM [activator, partial curve, poor fit]
